Laboratory results reported in the supplement of paper PMC4604168 (melanoma cell lines).
The list shows a part of the results. Single values are uncertain, as repeats are few or missing.

tested on: WM3526; assay: cell count relative to DMSO control; melanoma cells; higher = more viable cells; details: library dose: low library concentration; 72 h
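Also: cell number obtained by counting DAPI-stained nuclei in high-throughput microscope images with image analysis software, screen run in 1,536-well plates.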

Compound	cell count
O=C(O)c1ccc2c(c1)nc(Nc1cccc(Cl)c1)c1ccncc12 + OCc1c[nH]c2ccccc12 [Indole-3-carbinol] (first compound 0.4 µM, partner dose 0.8 µM)	83%
Cn1nnc2c(C(N)=O)ncn2c1=O [temozolomide] + COc1cc(Nc2ncc(F)c(Nc3ccc4c(n3)NC(=O)C(C)(C)O4)n2)cc(OC)c1OC [Tamatinib] (first compound 2 µM, partner dose 0.4 µM)	96.5%
Cc1cc(N2CCOCC2)cc2[nH]c(-c3c(NC[C@@H](O)c4cccc(Cl)c4)cc[nH]c3=O)nc12 + CCN(CC)CCCCNc1ncc2cc(-c3cc(OC)cc(OC)c3)c(NC(=O)NC(C)(C)C)nc2n1 [PD173074] (first compound 0.2 µM, partner dose 0.1 µM)	93%
Cc1cc(N2CCOCC2)cc2[nH]c(-c3c(NC[C@@H](O)c4cccc(Cl)c4)cc[nH]c3=O)nc12 + CCc1ccc(CCOc2ccc(CC3SC(=O)NC3=O)cc2)nc1 [pioglitazone] (first compound 0.2 µM, partner dose 2 µM)	116%
O=C(O)c1ccc2c(c1)nc(Nc1cccc(Cl)c1)c1ccncc12 + COCC[n+]1c2c(n(Cc3cnccn3)c1C)C(=O)c1ccccc1C2=O [YM155] (first compound 0.4 µM, partner dose 0.0004 µM)	69.5%
O=C(O)[C@@H]1[O][Sb](=[O])([O][Sb]2(=[O])[O][C@H]([C@H](O)CO)[C@H](O)[C@H](C(=O)O)[O]2)[O][C@H]([C@H](O)CO)[C@@H]1O (some centres not stated) [stibogluconate] + CCc1ccc(CCOc2ccc(CC3SC(=O)NC3=O)cc2)nc1 [pioglitazone] (first compound 2 µM, partner dose 2 µM)	94.5%
O=C(Nc1cc(C(F)(F)F)cc(C(F)(F)F)c1)c1cc(Cl)ccc1O + O=S(=O)(c1ccccc1)N(CC(F)(F)F)c1ccc(C(O)(C(F)(F)F)C(F)(F)F)cc1 [T0901317] (first compound 0.016 µM, partner dose 1.4 µM)	101%
O=C(Nc1cc(C(F)(F)F)cc(C(F)(F)F)c1)c1cc(Cl)ccc1O + CCCCCCCCc1ccc(CCC(N)(CO)CO)cc1 [fingolimod] (first compound 0.016 µM, partner dose 2 µM)	100%
O=C(Nc1cc(C(F)(F)F)cc(C(F)(F)F)c1)c1cc(Cl)ccc1O + O=C(Nc1cccc(Cl)c1)Nc1ncc(CCNc2ncnc3ccsc23)s1 [SNS314] (first compound 0.016 µM, partner dose 0.0008 µM)	101%
O=C(Nc1ccccc1)c1cc([N+](=O)[O-])ccc1Cl + c1cc(-c2cnn3cc(-c4ccc(OCCN5CCCCC5)cc4)cnc23)ccn1 [Dorsomorphin] (first compound 2 µM, partner dose 0.4 µM)	127%
O=C(O)[C@@H]1[O][Sb](=[O])([O][Sb]2(=[O])[O][C@H]([C@H](O)CO)[C@H](O)[C@H](C(=O)O)[O]2)[O][C@H]([C@H](O)CO)[C@@H]1O (some centres not stated) [stibogluconate] + Cn1nnc2c(C(N)=O)ncn2c1=O [temozolomide] (first compound 2 µM, partner dose 2 µM)	101%
Cc1cc(N2CCOCC2)cc2[nH]c(-c3c(NC[C@@H](O)c4cccc(Cl)c4)cc[nH]c3=O)nc12 + COc1ccc(COc2ccc(Cc3cnc(N)nc3N)cc2OC)cc1 [GW2580] (first compound 0.2 µM, partner dose 1 µM)	114%
